Results as given in the supplement of paper PMC8728848.
The list shows a part of the results.

What was measured:
Assay in all cases: glycan array binding signal (z-score within array); higher = stronger binding
Conditions in all cases: glycan notation: IUPAC condensed, linker removed
[1] = biological target: GlcNAc(b1-2)[GlcNAc(b1-4)]Man(a1-3)[GlcNAc(b1-4)][GlcNAc(b1-2)[GlcNAc(b1-6)]Man(a1-6)]Man(b1-4)GlcNAc(b1-4)GlcNAc
Summary of the method: (§1)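 Columns mapping to the same glycan were averaged after glycan names were converted to IUPAC-condensed notation. The data come from 3228 arrays in the Consortium for Functional Glycomics database, limited to those with an available protein sequence. Binding is reported as a within-array Z-score averaged across arrays of one protein sequence and across linkers.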

[2] = biological target: GlcNAc(b1-2)[GlcNAc(b1-4)]Man(a1-3)[GlcNAc(b1-4)][GlcNAc(b1-2)[GlcNAc(b1-6)]Man(a1-6)]Man(b1-4)GlcNAc(b1-4)[Fuc(a1-6)]GlcNAc
Summary of the method: as §1

[3] = biological target: GlcNAc(b1-2)[GlcNAc(b1-6)]Man(a1-6)[GlcNAc(b1-2)Man(a1-3)]Man(b1-4)GlcNAc(b1-4)GlcNAc
Summary of the method: as §1

[4] = biological target: GlcNAc(b1-2)[GlcNAc(b1-6)]Man(a1-6)[GlcNAc(b1-2)Man(a1-3)]Man(b1-4)GlcNAc(b1-4)[Fuc(a1-6)]GlcNAc
Summary of the method: as §1

[5] = biological target: GlcNAc(b1-2)[GlcNAc(b1-6)]Man(a1-6)[GlcNAc(b1-4)][GlcNAc(b1-2)Man(a1-3)]Man(b1-4)GlcNAc(b1-4)GlcNAc
Summary of the method: as §1

[6] = biological target: GlcNAc(b1-3)Fuc
Summary of the method: as §1

[7] = biological target: GlcNAc(b1-3)Gal
Summary of the method: as §1

[8] = biological target: GlcNAc(b1-3)Gal(b1-3)GalNAc
Summary of the method: as §1

[9] = biological target: GlcNAc(b1-3)Gal(b1-4)Glc
Summary of the method: as §1

[10] = biological target: GlcNAc(b1-3)Gal(b1-4)GlcNAc
Summary of the method: as §1

[11] = biological target: GlcNAc(b1-3)Gal(b1-4)GlcNAc(b1-2)Man(a1-3)[GlcNAc(b1-3)Gal(b1-4)GlcNAc(b1-2)Man(a1-6)]Man(b1-4)GlcNAc(b1-4)GlcNAc
Summary of the method: as §1

[12] = biological target: GlcNAc(b1-3)Gal(b1-4)GlcNAc(b1-2)Man(a1-3)[GlcNAc(b1-3)Gal(b1-4)GlcNAc(b1-2)Man(a1-6)]Man(b1-4)GlcNAc(b1-4)[Fuc(a1-6)]GlcNAc
Summary of the method: as §1

[13] = biological target: GlcNAc(b1-3)Gal(b1-4)GlcNAc(b1-2)[GlcNAc(b1-3)Gal(b1-4)GlcNAc(b1-6)]Man(a1-6)[GlcNAc(b1-3)Gal(b1-4)GlcNAc(b1-2)Man(a1-3)]Man(b1-4)GlcNAc(b1-4)GlcNAc
Summary of the method: as §1

[14] = biological target: GlcNAc(b1-3)Gal(b1-4)GlcNAc(b1-3)Gal(b1-4)GlcNAc
Summary of the method: as §1

[15] = biological target: GlcNAc(b1-3)Gal(b1-4)GlcNAc(b1-3)Gal(b1-4)GlcNAc(b1-2)Man(a1-3)[GlcNAc(b1-3)Gal(b1-4)GlcNAc(b1-3)Gal(b1-4)GlcNAc(b1-2)Man(a1-6)]Man(b1-4)GlcNAc(b1-4)GlcNAc
Summary of the method: as §1

[16] = biological target: GlcNAc(b1-3)Gal(b1-4)GlcNAc(b1-3)Gal(b1-4)GlcNAc(b1-2)Man(a1-3)[GlcNAc(b1-3)Gal(b1-4)GlcNAc(b1-3)Gal(b1-4)GlcNAc(b1-2)Man(a1-6)]Man(b1-4)GlcNAc(b1-4)[Fuc(a1-6)]GlcNAc
Summary of the method: as §1

[17] = biological target: GlcNAc(b1-3)Gal(b1-4)GlcNAc(b1-3)Gal(b1-4)GlcNAc(b1-2)[GlcNAc(b1-3)Gal(b1-4)GlcNAc(b1-3)Gal(b1-4)GlcNAc(b1-6)]Man(a1-6)[GlcNAc(b1-3)Gal(b1-4)GlcNAc(b1-3)Gal(b1-4)GlcNAc(b1-2)Man(a1-3)]Man(b1-4)GlcNAc(b1-4)[Fuc(a1-6)]GlcNAc
Summary of the method: as §1

[18] = biological target: GlcNAc(b1-3)Gal(b1-4)GlcNAc(b1-3)Gal(b1-4)GlcNAc(b1-3)Gal(b1-4)GlcNAc(b1-2)Man(a1-3)[GlcNAc(b1-3)Gal(b1-4)GlcNAc(b1-3)Gal(b1-4)GlcNAc(b1-3)Gal(b1-4)GlcNAc(b1-2)Man(a1-6)]Man(b1-4)GlcNAc(b1-4)GlcNAc
Summary of the method: as §1

[19] = biological target: GlcNAc(b1-3)Gal(b1-4)GlcNAc(b1-3)Gal(b1-4)GlcNAc(b1-3)Gal(b1-4)GlcNAc(b1-2)Man(a1-3)[GlcNAc(b1-3)Gal(b1-4)GlcNAc(b1-3)Gal(b1-4)GlcNAc(b1-3)Gal(b1-4)GlcNAc(b1-2)Man(a1-6)]Man(b1-4)GlcNAc(b1-4)[Fuc(a1-6)]GlcNAc
Summary of the method: as §1

[20] = biological target: GlcNAc(b1-3)Gal(b1-4)GlcNAc(b1-3)Gal(b1-4)GlcNAc(b1-3)Gal(b1-4)GlcNAc(b1-2)[GlcNAc(b1-3)Gal(b1-4)GlcNAc(b1-3)Gal(b1-4)GlcNAc(b1-3)Gal(b1-4)GlcNAc(b1-6)]Man(a1-6)[GlcNAc(b1-3)Gal(b1-4)GlcNAc(b1-3)Gal(b1-4)GlcNAc(b1-3)Gal(b1-4)GlcNAc(b1-2)Man(a1-3)]Man(b1-4)GlcNAc(b1-4)[Fuc(a1-6)]GlcNAc
Summary of the method: as §1

[21] = biological target: GlcNAc(b1-3)Gal(b1-4)GlcNAc(b1-3)Gal(b1-4)GlcNAc(b1-3)Gal(b1-4)GlcNAc(b1-3)Gal(b1-4)GlcNAc(b1-2)Man(a1-3)[GlcNAc(b1-3)Gal(b1-4)GlcNAc(b1-3)Gal(b1-4)GlcNAc(b1-3)Gal(b1-4)GlcNAc(b1-3)Gal(b1-4)GlcNAc(b1-2)Man(a1-6)]Man(b1-4)GlcNAc(b1-4)GlcNAc
Summary of the method: as §1

[22] = biological target: GlcNAc(b1-3)Gal(b1-4)GlcNAc(b1-3)Gal(b1-4)GlcNAc(b1-3)Gal(b1-4)GlcNAc(b1-3)Gal(b1-4)GlcNAc(b1-2)Man(a1-3)[GlcNAc(b1-3)Gal(b1-4)GlcNAc(b1-3)Gal(b1-4)GlcNAc(b1-3)Gal(b1-4)GlcNAc(b1-3)Gal(b1-4)GlcNAc(b1-2)Man(a1-6)]Man(b1-4)GlcNAc(b1-4)[Fuc(a1-6)]GlcNAc
Summary of the method: as §1

[23] = biological target: GlcNAc(b1-3)Gal(b1-4)GlcNAc(b1-3)Gal(b1-4)GlcNAc(b1-3)Gal(b1-4)GlcNAc(b1-3)Gal(b1-4)GlcNAc(b1-2)[GlcNAc(b1-3)Gal(b1-4)GlcNAc(b1-3)Gal(b1-4)GlcNAc(b1-3)Gal(b1-4)GlcNAc(b1-3)Gal(b1-4)GlcNAc(b1-6)]Man(a1-6)[GlcNAc(b1-3)Gal(b1-4)GlcNAc(b1-3)Gal(b1-4)GlcNAc(b1-3)Gal(b1-4)GlcNAc(b1-3)Gal(b1-4)GlcNAc(b1-2)Man(a1-3)]Man(b1-4)GlcNAc(b1-4)[Fuc(a1-6)]GlcNAc
Summary of the method: as §1

[24] = biological target: GlcNAc(b1-3)Gal(b1-4)GlcNAc(b1-3)Gal(b1-4)GlcNAc(b1-3)GalNAc
Summary of the method: as §1

[25] = biological target: GlcNAc(b1-3)Gal(b1-4)GlcNAc(b1-3)GalNAc
Summary of the method: as §1

[26] = biological target: GlcNAc(b1-3)Gal(b1-4)GlcNAc(b1-3)[GlcNAc(b1-3)Gal(b1-4)GlcNAc(b1-3)]GalNAc
Summary of the method: as §1

[27] = biological target: GlcNAc(b1-3)Gal(b1-4)GlcNAc(b1-6)[Gal(b1-3)]GalNAc
Summary of the method: as §1

[28] = biological target: GlcNAc(b1-3)Gal(b1-4)GlcNAc(b1-6)[GlcNAc(b1-3)Gal(b1-3)]GalNAc
Summary of the method: as §1

[29] = biological target: GlcNAc(b1-3)Gal(b1-4)GlcNAc(b1-6)[GlcNAc(b1-3)]Gal(b1-4)GlcNAc
Summary of the method: as §1

[30] = biological target: GlcNAc(b1-3)GalNAc
Summary of the method: as §1

[31] = biological target: GlcNAc(b1-3)Man
Summary of the method: as §1

[32] = biological target: GlcNAc(b1-3)[GlcNAc(b1-4)][GlcNAc(b1-6)]GlcNAc
Summary of the method: as §1

[33] = biological target: GlcNAc(b1-3)[GlcNAc(b1-6)]Gal(b1-4)GlcNAc
Summary of the method: as §1

[34] = biological target: GlcNAc(b1-3)[GlcNAc(b1-6)]GalNAc
Summary of the method: as §1

[35] = biological target: GlcNAc(b1-4)Gal(b1-4)GlcNAc
Summary of the method: as §1

[36] = biological target: GlcNAc(b1-4)GlcNAc
Summary of the method: as §1

[37] = biological target: GlcNAc(b1-4)GlcNAc(b1-4)GlcNAc
Summary of the method: as §1

[38] = biological target: GlcNAc(b1-4)GlcNAc(b1-4)GlcNAc(b1-4)GlcNAc(b1-4)GlcNAc
Summary of the method: as §1

B1: PX9937A-bvu-521-23-521 (Bacteroides vulgatus) (protein)
chain: LDLAPEDYYGAGNFWKEASQPKAFMLGLHAQLRSYYDMFYTLGELRGGTQRVGTSSLNTSLNYADIRSQNISEDIPGISNWNGLYSPIMQVNHFIQEVENGCTFLDDATRSRYLGQAYGMRALYYFMLYRTFGGVPLITKVDILDGKPSADKFYVERATPEATMEFIKADINKSENYFGNNTSFDAYDWSRYATLMLKAEIYMWAAKVSITGFTATGATDLQTAKTALSGIIGHFELMDNFASIFSCDNKKNTEIIFAMPFIEGEASNDGGRFLYQDAVFLGQAYGRNGKVIEKDTLNLKGTGGVFRDEYTEDFWKTFKEGDSRRDATFMEYYMKNDNGTLSEFGCVMKKRIGTINSNDNRIYISDIPVYRYADALLMMAEIENGLNNPCASYINEVRKRAYGDTFEENKYTEGSYAENELAILQERDKEFVSEGKRWFDVLRMHDASGRSLVFSANANYPGTNPILGTEEAYKMLWPVNIGTLNVNPLLTQTPGYGKK
- glycan array binding signal (z-score) [1]: -0.443
- glycan array binding signal (z-score) [2]: -0.497
- glycan array binding signal (z-score) [3]: 0.445
- glycan array binding signal (z-score) [4]: -0.332
- glycan array binding signal (z-score) [5]: -0.532
- glycan array binding signal (z-score) [6]: 2.63
- glycan array binding signal (z-score) [7]: -0.011
- glycan array binding signal (z-score) [8]: -0.399
- glycan array binding signal (z-score) [9]: -0.241
- glycan array binding signal (z-score) [10]: -0.301
- glycan array binding signal (z-score) [11]: 2.54
- glycan array binding signal (z-score) [12]: 0.791
- glycan array binding signal (z-score) [13]: 0.223
- glycan array binding signal (z-score) [14]: -0.397
- glycan array binding signal (z-score) [15]: 0.306
- glycan array binding signal (z-score) [16]: 0.476
- glycan array binding signal (z-score) [17]: -0.055
- glycan array binding signal (z-score) [18]: -0.408
- glycan array binding signal (z-score) [19]: -0.052
- glycan array binding signal (z-score) [20]: -0.128
- glycan array binding signal (z-score) [21]: -0.306
- glycan array binding signal (z-score) [22]: -0.708
- glycan array binding signal (z-score) [23]: 0.603
- glycan array binding signal (z-score) [24]: -0.527
- glycan array binding signal (z-score) [25]: -0.404
- glycan array binding signal (z-score) [26]: 1.31
- glycan array binding signal (z-score) [27]: 0.239
- glycan array binding signal (z-score) [28]: -0.402
- glycan array binding signal (z-score) [29]: -0.214
- glycan array binding signal (z-score) [30]: -0.286
- glycan array binding signal (z-score) [31]: -0.399
- glycan array binding signal (z-score) [32]: -0.315
- glycan array binding signal (z-score) [33]: -0.227
- glycan array binding signal (z-score) [34]: -0.347
- glycan array binding signal (z-score) [35]: -0.354
- glycan array binding signal (z-score) [36]: -0.09
- glycan array binding signal (z-score) [37]: -0.431
- glycan array binding signal (z-score) [38]: -0.205
